B1: PhoQ; a variant is named by its letters at X, in order, P23837 (parent)
chain: MKKLLRLFFPLSLRVRFLLATAAVVLVLSLAYGMVALIGYSVSFDKTTFRLLRGESNLFYTLAKWENNKLHVELPENIDKQSPTMTLIYDENGQLLWAQRDVPWLMKMIQPDWLKSNGFHEIEADVNDTSLLLSGDHSIQQQLQEVREDDDDAEMTHSVAVNVYPATSRMPKLTIVVVDTIPVELKSSYMVWSWFIYVLSANLLLVIPLLWVAAWWSLRPIEALAKEVRELEEHNRELLNPATTRELTSLVRNLNRLLKSERERYDKYRTTLTDLTHSLKTPLXXLQXXLRSLRSEKMSVSDAEPVMLEQISRISQQIGYYLHRASMRGGTLLSRELHPVAPLLDNLTSALNKVYQRKGVNISLDISPEISFVGEQNDFVEVMGNVLDNACKYCLEFVEISARQTDEHLYIVVEDDGPGIPLSKREVIFDRGQRVDTLRPGQGVGLAVAREITEQYEGKIVAGESMLGGARMEVIFGRQHSAPKDE

This is one part of the list.

Variants of B1 are the subject of the assay. As to the kind of experiment: enrichment ratio after two sorts for PhoP signalling (ratio (wild type AVST 3.29)); higher = more functional. The settings on record: with PhoP (E. coli).
On to IVPQ, for which the enrichment ratio was at most 0.25.
Regarding VWGF, the enrichment ratio is at most 0.25.
TTAV: the enrichment ratio is 6.68.
Turning to FQMM, the enrichment ratio is 5.91.
As for KRMS, the figure is at most 0.25; as for NDWI, at most 0.25; as for KPDG, at most 0.25.
Turning to NKVE, the enrichment ratio is at most 0.25.
In the case of TFPW, the enrichment ratio is at most 0.25.
In the case of RQIS, the enrichment ratio was at most 0.25.
The value for WRPT was at most 0.25; that for FIGI was at most 0.25; that for FSWG was at most 0.25.
Turning to QFWM, the enrichment ratio is at most 0.25.
The value for AIPV was 1.47; that for EDDS was at most 0.25; that for VIML was 0.384.
As to WDRG, the enrichment ratio is at most 0.25.
For AKED, the enrichment ratio is at most 0.25.
Regarding RCRQ, the enrichment ratio is at most 0.25.
Turning to SDNI, the enrichment ratio was at most 0.25.
TCMV: the enrichment ratio turned out to be 14.6.
On to EQEG, for which the enrichment ratio was at most 0.25.
As to HLQP, the enrichment ratio was at most 0.25.
Regarding SMNT, the enrichment ratio was at most 0.25.
Regarding KYYN, the enrichment ratio is at most 0.25.
For the variant NRMI, the enrichment ratio was at most 0.25.
As for VLIR, the figure is at most 0.25.
In the case of PQYP, the enrichment ratio is at most 0.25.
Consider WFYR, for which the enrichment ratio was found to be 0.626.
Take PRLN: the enrichment ratio is at most 0.25.
Take MAQL: the enrichment ratio is at most 0.25.
In the case of RFNP, the enrichment ratio is at most 0.25.
Turning to ARHD, the enrichment ratio is at most 0.25.
In the case of HPSM, the enrichment ratio is at most 0.25.
As for NKKP, the enrichment ratio is at most 0.25.
Consider NKCD, for which the enrichment ratio is at most 0.25.
With KGAW, the enrichment ratio is at most 0.25.
For the variant HRSW, the enrichment ratio was at most 0.25.
HPCK: the enrichment ratio was at most 0.25.
On to WRKV, for which the enrichment ratio is at most 0.25.
The value for TFID was at most 0.25; that for LHYG was at most 0.25.
For the variant FWIE, the enrichment ratio is at most 0.25.
Turning to TWIH, the enrichment ratio is at most 0.25.
Regarding DGYW, the enrichment ratio is at most 0.25.
Regarding WWAH, the enrichment ratio was at most 0.25.
For SMEV, the enrichment ratio was at most 0.25.
With GMGS, the enrichment ratio is at most 0.25.
With HIPT, the enrichment ratio was at most 0.25.
In the case of GGEG, the enrichment ratio was at most 0.25.
Turning to VMNV, the enrichment ratio was at most 0.25.
The value for WKKE was at most 0.25; that for NRMA was at most 0.25; that for GWSK was at most 0.25.
As to ARCN, the enrichment ratio is at most 0.25.
For LPRP, the enrichment ratio was at most 0.25.
Regarding GLVN, the enrichment ratio is at most 0.25.
GVLI: the enrichment ratio worked out at 15.6.
For the variant LLEV, the enrichment ratio was at most 0.25.
As for ILER, the enrichment ratio was at most 0.25.
Regarding NWAV, the enrichment ratio is at most 0.25.
As for ACAN, the enrichment ratio was 15.5.
MTFW: the enrichment ratio was at most 0.25.
Turning to ATCG, the enrichment ratio was found to be 16.1.
In the case of PTYT, the enrichment ratio was at most 0.25.
As for NAYA, the figure is at most 0.25.
As for PKMP, the enrichment ratio is at most 0.25.
In the case of VWHR, the enrichment ratio is at most 0.25.
The value for EMQI was at most 0.25; that for WPCM was at most 0.25.
On to LLDP, for which the enrichment ratio was at most 0.25.
Consider RKAE, for which the enrichment ratio is at most 0.25.
The value for VTWH was at most 0.25.
Turning to ANVM, the enrichment ratio was 14.9.
The value for SDAH was 3.67; that for VCYQ was at most 0.25.
WNKL: the enrichment ratio was at most 0.25.
For LVRG, the enrichment ratio is at most 0.25.
In the case of LIKM, the enrichment ratio was at most 0.25.
For the variant KIHN, the enrichment ratio is at most 0.25.
For the variant YIHY, the enrichment ratio is at most 0.25.
With FCMP, the enrichment ratio is at most 0.25.
As for RSTW, the enrichment ratio was at most 0.25.
For the variant VLVY, the enrichment ratio was at most 0.25.
With NCRM, the enrichment ratio is at most 0.25.
With NQVN, the enrichment ratio is at most 0.25.
Turning to IENL, the enrichment ratio is at most 0.25.
In the case of RYGL, the enrichment ratio is at most 0.25.
Regarding PPRV, the enrichment ratio was at most 0.25.
For DFHW, the enrichment ratio was at most 0.25.
As for VIGY, the figure is at most 0.25; as for TSLG, 14.5; as for APPQ, at most 0.25.
On to DAAW, for which the enrichment ratio is at most 0.25.
On to HNRN, for which the enrichment ratio is at most 0.25.
Turning to LRFE, the enrichment ratio was at most 0.25.
Regarding IAIN, the enrichment ratio was at most 0.25.
In the case of QFGV, the enrichment ratio was at most 0.25.
Turning to PMMA, the enrichment ratio is at most 0.25.
Take PKAW: the enrichment ratio was at most 0.25.
With PWPL, the enrichment ratio was at most 0.25.
As to MNCR, the enrichment ratio is at most 0.25.
Take FDFM: the enrichment ratio was at most 0.25.
Turning to VEFK, the enrichment ratio is at most 0.25.
KMCM: the enrichment ratio is at most 0.25.
Turning to RAYD, the enrichment ratio was at most 0.25.
FDSP: the enrichment ratio was at most 0.25.
With AFVS, the enrichment ratio is at most 0.25.
The value for EAYN was at most 0.25; that for PHQF was at most 0.25.
Turning to LHPA, the enrichment ratio came to 0.304.
Take RGMP: the enrichment ratio was at most 0.25.
The value for QMDY was at most 0.25; that for NSFP was at most 0.25.
As for WEGL, the enrichment ratio was at most 0.25.
Take TMWH: the enrichment ratio is at most 0.25.
As for RFMS, the figure is at most 0.25; as for NRHL, at most 0.25.
The value for KHDH was at most 0.25; that for SEHQ was at most 0.25; that for AWYC was at most 0.25.
The value for QHGQ was at most 0.25; that for YYAC was at most 0.25.
NFRV: the enrichment ratio is at most 0.25.
With QFLF, the enrichment ratio was at most 0.25.
Consider DPND, for which the enrichment ratio is at most 0.25.
Consider RIRM, for which the enrichment ratio is at most 0.25.
FVMG: the enrichment ratio was at most 0.25.
On to MQWT, for which the enrichment ratio came out at 21.2.
Take LKSS: the enrichment ratio is at most 0.25.
As for NFMR, the enrichment ratio is at most 0.25.
As for QANC, the figure is at most 0.25.
Turning to QMER, the enrichment ratio was at most 0.25.
As for DWIE, the enrichment ratio is at most 0.25.
On to QDPV, for which the enrichment ratio is at most 0.25.
For the variant RNYR, the enrichment ratio was at most 0.25.
For SHEQ, the enrichment ratio was at most 0.25.
For PTCH, the enrichment ratio was at most 0.25.
On to NMGC, for which the enrichment ratio was at most 0.25.
The value for IAWA was at most 0.25; that for IYEE was at most 0.25.
Regarding FNSS, the enrichment ratio was at most 0.25.
In the case of IMPE, the enrichment ratio is at most 0.25.
For the variant EGFG, the enrichment ratio is at most 0.25.
The value for AGAK was 10.2; that for RLQL was at most 0.25.
As for WPFH, the enrichment ratio is at most 0.25.
As to IFQS, the enrichment ratio was at most 0.25.
Take FTSH: the enrichment ratio was at most 0.25.
With GHII, the enrichment ratio was at most 0.25.
IIAI: the enrichment ratio was at most 0.25.
As for GGRI, the figure is at most 0.25.
In the case of IDGM, the enrichment ratio was at most 0.25.
Take SVVF: the enrichment ratio is at most 0.25.
The value for TCVL was at most 0.25.
As for NCYQ, the enrichment ratio is at most 0.25.
As for DRIC, the figure is at most 0.25; as for VGAH, at most 0.25.
In the case of NWYI, the enrichment ratio was at most 0.25.
In the case of YNIL, the enrichment ratio was at most 0.25.
Regarding KWFS, the enrichment ratio was at most 0.25.
As to IYED, the enrichment ratio was at most 0.25.
RMDI: the enrichment ratio was at most 0.25.
On to IMEI, for which the enrichment ratio was at most 0.25.
With VDEC, the enrichment ratio is at most 0.25.
Turning to AMWW, the enrichment ratio is at most 0.25.
In the case of WFAA, the enrichment ratio was at most 0.25.
Turning to KNPQ, the enrichment ratio was at most 0.25.
As for ISFQ, the figure is at most 0.25; as for KHHA, at most 0.25; as for LWSM, at most 0.25.
For HDQL, the enrichment ratio is at most 0.25.
As for HLIR, the enrichment ratio was at most 0.25.
As for EPSQ, the figure is at most 0.25; as for RFVV, at most 0.25.
For the variant SNMD, the enrichment ratio came to 1.49.
In the case of CITI, the enrichment ratio was at most 0.25.
On to RIAW, for which the enrichment ratio is at most 0.25.
On to YPYM, for which the enrichment ratio is at most 0.25.
YRMR: the enrichment ratio is at most 0.25.
With KMTS, the enrichment ratio is at most 0.25.
Regarding SDMD, the enrichment ratio was at most 0.25.
Take SFEG: the enrichment ratio is at most 0.25.
In the case of LAAC, the enrichment ratio is at most 0.25.
Regarding AQSW, the enrichment ratio is at most 0.25.
The value for GSEQ was 4.27.
As for RDEQ, the figure is at most 0.25.
As for WASF, the enrichment ratio was at most 0.25.
ELSY: the enrichment ratio is at most 0.25.
Take QRES: the enrichment ratio was at most 0.25.
With PPTT, the enrichment ratio is at most 0.25.
Regarding PTDE, the enrichment ratio was at most 0.25.
Consider LTFV, for which the enrichment ratio was 1.99.
Turning to NYCW, the enrichment ratio is at most 0.25.

Values taken from a collection of fitness landscapes (doi:10.1126/science.1257360).
